Measurements from PubChem BioAssay AID488969 (Vanderbilt High Throughput Screening Facility, 2010).
Whole data set: some 110,000 compounds, median “z-score” near -0.1, cut for the highest 2% near 2. The list shows a part of the results.

The compounds below were run against Metabotropic glutamate receptor 8 (Rattus norvegicus) (UniProt P70579) (assay: mGluR8 Gi/Go-coupled signaling modulation – cell-based, rat, thallium flux, HTS, primary screen (AID 488969)). Conditions: HEK293 rat mGluR8, GIRK (G protein-gated inwardly rectifying potassium channel) thallium flux, FluoZin2; at 10 µM; stronger effect = higher value; submaximal glutamate (EC20) added with thallium.
UniProt P70579, sequence (P70579 whole entry, looked up): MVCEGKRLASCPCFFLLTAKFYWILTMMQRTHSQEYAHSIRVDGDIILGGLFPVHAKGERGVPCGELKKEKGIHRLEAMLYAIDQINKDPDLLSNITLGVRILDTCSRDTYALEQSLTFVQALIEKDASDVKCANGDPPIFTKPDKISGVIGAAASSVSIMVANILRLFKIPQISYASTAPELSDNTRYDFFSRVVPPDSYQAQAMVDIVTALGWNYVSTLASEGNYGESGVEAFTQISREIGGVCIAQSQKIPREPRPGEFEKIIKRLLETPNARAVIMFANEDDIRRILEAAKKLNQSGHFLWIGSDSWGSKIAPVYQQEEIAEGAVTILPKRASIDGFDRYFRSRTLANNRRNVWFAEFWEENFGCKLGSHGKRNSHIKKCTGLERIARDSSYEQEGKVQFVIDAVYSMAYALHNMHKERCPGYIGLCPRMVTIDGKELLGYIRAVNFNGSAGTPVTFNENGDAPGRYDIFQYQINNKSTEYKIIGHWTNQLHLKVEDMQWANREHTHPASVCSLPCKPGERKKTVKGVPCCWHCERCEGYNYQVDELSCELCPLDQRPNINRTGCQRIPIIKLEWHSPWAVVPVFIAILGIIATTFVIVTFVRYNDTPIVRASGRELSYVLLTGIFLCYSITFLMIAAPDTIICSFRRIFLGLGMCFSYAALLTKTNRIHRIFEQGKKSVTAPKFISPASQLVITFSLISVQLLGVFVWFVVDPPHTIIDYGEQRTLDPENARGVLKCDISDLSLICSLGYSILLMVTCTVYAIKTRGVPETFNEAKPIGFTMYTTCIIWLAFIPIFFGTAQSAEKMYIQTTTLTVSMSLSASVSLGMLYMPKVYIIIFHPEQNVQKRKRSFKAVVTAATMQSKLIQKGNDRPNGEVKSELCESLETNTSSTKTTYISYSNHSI
CCN(CC)S(=O)(=O)c1ccc(NC(=O)c2cc(C(=O)OC)cc([N+](=O)[O-])c2)cc1 was tested, and the z-score was -0.729. In the case of Cc1cccc(NS(=O)(=O)c2cnc(Cl)c(Br)c2)n1, the z-score is reported as -0.147. Work on Cc1cc(C)c(NC(=O)C(C)OC(=O)c2cc(Br)c(Br)s2)c(C)c1 (stereo not drawn) yielded a z-score of -0.213. Cc1csc(NC(=O)CSc2nnc(Cc3cccn3C)n2-c2ccc(F)cc2)n1 was tested, and the z-score was -0.293. Work on O=C(CSc1cccc(C(F)(F)F)c1)Nc1ccc(Cl)cc1Cl yielded a z-score of -0.131. CCOc1cc(C(=O)NCCN2CCOCC2)cc(OCC)c1OCC gave a z-score of -0.462. For CCSC1=NC(C)(C)C=C(C)N1, the z-score was -0.0899. Cc1ccnc(NS(=O)(=O)c2ccc(N3C(=O)c4c(Cl)c(Cl)c(Cl)c(Cl)c4C3=O)cc2)n1 showed a z-score of -0.03. Compound O=C(Nc1ccccc1C(=O)N1CCCCCC1)c1cccc(S(=O)(=O)N2CCOCC2)c1 has a z-score of -0.166. Compound CC(=O)c1sc(NC(=O)C(C)(C)C)nc1C has a z-score of 1.3. With Cc1nc2ncnn2c(C)c1CCC(=O)NCCCN1CCN(c2cccc(Cl)c2)CC1 the z-score was -0.195. Compound O=[N+]([O-])c1cccnc1NCCNc1ncc(C(F)(F)F)cc1Cl has a z-score of -0.0413. Work on COc1ccc2nc(C)cc(N3CCOCC3)c2c1 yielded a z-score of -0.176. Cc1ccc(-c2nc(=S)c3c(n2CC2CCCO2)CC(C)(C)OC3)cc1 (stereo not drawn) showed a z-score of -0.282. In the case of Cc1nc(-c2cccc(NS(=O)(=O)c3ccccc3)c2)cs1, the z-score is reported as 0.352. COc1ccc(N2C(=O)C3CCCN3C2c2cccc(C)c2)cc1Cl (stereo not drawn) showed a z-score of -0.737. In the case of Cc1ccc(OCCSCc2nnc(NC(=O)Nc3cccc(Cl)c3)s2)cc1, the z-score is reported as -0.203. With COc1ccc(NC(=O)c2ccccc2SC)cc1OC the z-score was -0.00811. O=C(NCc1cccs1)c1cccnc1Cl showed a z-score of -0.317. Work on O=C(NCc1ccco1)c1ccc(S(=O)(=O)N2CCCc3ccccc32)cc1 yielded a z-score of -0.674. In the case of O=C(COc1ccc(Br)cc1)N1CCN(c2ccccc2)CC1, the z-score is reported as -0.153. With CN(CC1COc2ccccc2O1)C(=S)Nc1ccccc1 (stereo not drawn) the z-score was -0.584. For COc1ccccc1NC(C)C(=O)N/N=C/c1ccccc1OCc1cccc(Br)c1 (stereo not drawn), the z-score was -0.17. CCN(CC)S(=O)(=O)c1ccc(NCc2ccccc2)nc1 was tested, and the z-score was -0.962. CCCCN(CCCC)CCNC(=O)CNC(=O)c1cccs1 showed a z-score of 0.14. Work on Clc1cccc(NC2=NCCC2)c1 yielded a z-score of -0.147. COc1ccc(-c2csc(NC(=S)NC(=O)/C=C/c3ccco3)n2)cc1OC showed a z-score of -0.318. In the case of Cc1cc(C(=O)N2CCN(C(=O)C3CCCO3)CC2)no1 (stereo not drawn), the z-score is reported as 0.0683. Compound CC(=C1C(=O)c2ccccc2C1=O)N1CCc2ccccc2C1 has a z-score of -0.182. NS(=O)(=O)c1ccc(CCNC(=O)Nc2ccc(Cl)c(Cl)c2)cc1 gave a z-score of -0.0212. For O=C1C2C3C=CC(C4CC34)C2C(=O)N1/N=C/c1ccc(-c2ccc(Cl)cc2[N+](=O)[O-])o1 (stereo not drawn), the z-score was -0.0581. In the case of CN(C)CCSc1nnc2sc3ccccc3n12, the z-score is reported as -0.0362. For CNC(=S)N/N=C/c1ccc2c(c1)OCCO2, the z-score was 0.205. O=C(COC(=O)COc1ccccc1[N+](=O)[O-])NC1CCCC1 showed a z-score of -0.559. Work on CC1CCN(CCOc2cccc(Br)c2)CC1 yielded a z-score of 0.339. With O=C(Oc1nsnc1N1CCOCC1)N1CCCCC1 the z-score was 0.858. Cc1cccc(NC(=O)CSc2nnc(CCC(=O)Nc3ccc(C)c(Cl)c3)n2C)c1 gave a z-score of -0.116. Compound CCc1ccc(NC(=O)CSc2nc3cc(C(=O)OC)ccc3c(=O)n2CC2CCCO2)cc1 (stereo not drawn) has a z-score of 0.287. Compound O=S1(=O)CCC(N2CCOCC2)C1 (stereo not drawn) has a z-score of 0.485. O=C(c1ccc(CNS(=O)(=O)c2ccccc2)cc1)N1CCN(Cc2ccccc2)CC1 was tested, and the z-score was 0.0691. Work on CC(=O)c1c(C(C)=O)c(C)n(NC(=O)c2ccccc2Cl)c1C yielded a z-score of 0.687. In the case of O=C(CSc1nnc(Cc2ccccc2)o1)Nc1ccc(Br)cn1, the z-score is reported as 0.507. With COc1ccc(S(=O)(=O)NC2CC3CCC2C3)cc1Cl (stereo not drawn) the z-score was 0.912. CO/N=C/c1ccc(Sc2ccccc2)c([N+](=O)[O-])c1 showed a z-score of -0.0163. Cc1ccccc1C(=O)N/N=C/c1ccncc1 was tested, and the z-score was 0.000549. CCN(CC)S(=O)(=O)c1cc([N+](=O)[O-])ccc1NNC(=O)Nc1ccc(Cl)c(Cl)c1 gave a z-score of 1.1. With O=C(CSCc1ccc(F)cc1)NCc1ccco1 the z-score was -0.134. Cc1cccc(-n2c(N)cc(=O)nc2SC(C)C(=O)NC2CCCCC2)c1 (stereo not drawn) was tested, and the z-score was 0.676. With CCOC(=O)c1c(-c2ccccc2)csc1NC(=O)c1cccc(N2C(=O)CCC2=O)c1 the z-score was 0.129. Cc1cccc(N(C)C(=O)c2cc3cc4ccc(C)cc4nc3o2)c1 was tested, and the z-score was 0.275. Cc1c(Cl)c(C(=O)N2CCCc3ccccc32)nn1C showed a z-score of -0.0791. CCOc1ccc(-n2cnnn2)cc1S(=O)(=O)NCc1ccccc1 showed a z-score of 0.825. Work on COc1ccc(NC(C#N)c2ccccc2OCc2ccccc2)cc1 (stereo not drawn) yielded a z-score of -0.89. With O=C(/C=C/c1cnc2ccccc2n1)NC12CC3CC(CC(C3)C1)C2 the z-score was -0.473. Compound c1ccc(CCSc2nccn2-c2ccccc2)cc1 has a z-score of -0.227. Work on Cc1ccc(C)c(Cn2c(=O)c3c(nc4n3CCN4Cc3ccco3)n(C)c2=O)c1 yielded a z-score of -0.0936. O=C(NCCCN1CCCC1=O)c1ccccc1NS(=O)(=O)c1ccc(F)cc1 was tested, and the z-score was -0.275. CCCOC(=O)c1c(NC(=O)/C=C/c2cnn(C)c2C)sc(C(=O)OCC)c1C showed a z-score of 0.141. In the case of O=C(Cn1c2ccccc2c(=O)c2ccccc21)N/N=C/c1cc([N+](=O)[O-])ccc1N1CCCCC1, the z-score is reported as 0.0373. Cc1cc(/C=N/NC(N)=O)c(C)c(CO)c1 showed a z-score of -0.0977. Work on O=C(Cc1cccs1)NCc1ccccc1F yielded a z-score of 0.54. Work on COc1ccc(C(=O)N2CCN(C3CCCCC3)CC2)c(OC)c1 yielded a z-score of -0.579. In the case of COc1ccc(NC(=O)Cn2nnc(C(=O)NCc3ccco3)c2N)c(OC)c1, the z-score is reported as 0.217. Work on COc1ccccc1NC(=O)N(Cc1ccccc1)C1=NCC(C)S1 (stereo not drawn) yielded a z-score of -1.04. Compound CCCc1cc(=O)[nH]c(SCC(=O)NC2CCCCC2)n1 has a z-score of -0.031. Compound NC(=S)Nc1cccc2cnccc12 has a z-score of 0.25. In the case of O=C(NCc1cn2ccccc2n1)c1ccc(Br)o1, the z-score is reported as 0.0012. Cc1cc(Oc2ccccc2)nc(N)n1 showed a z-score of -0.402. CN1CCN(C(=O)c2cc3ccccc3oc2=O)CC1 was tested, and the z-score was 0.00294. Compound CCOc1ccc(Br)cc1-c1noc(-c2cccs2)n1 has a z-score of -0.00383. With Cc1cccc(C)c1Nc1ncnc(N)c1[N+](=O)[O-] the z-score was -0.246. CCOC(=O)c1c(CSc2ccccc2)oc2ccc(O)cc12 was tested, and the z-score was -0.248. Cc1c(NC(=O)C(C)OC(=O)[C@@H](NC(=O)c2ccccc2)C(C)C)c(=O)n(-c2ccccc2)n1C (stereo partly drawn) was tested, and the z-score was -0.264.
